Values marked as one replicate rest on one cluster of the flow cell; about a third of the high ones do not repeat.
What follows are sequences tested on ATP (assay: switch fluorescence ratio, 500 uM ATP over buffer (Cy3 cluster intensity, sum of 5 cycles each) (fold (ratio)); higher = stronger signal-on switching upon ATP binding; sequences stand for … in TCGTCGGCAGCGTCAGATGTGTATAAGAGACAGTTTTTTTTTTTTTTTTTTTTTTTTT…TC). Conditions: aptamer strand: ATP DNA aptamer (quencher-CACCTGGGGGAGTATTGCGGAGGAAGG + anchor), 100 nM annealed; ATP concentration: 500 uM; one replicate.
In short: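 Per cluster, summed Cy3 intensity from the target cycles was divided by that from the buffer cycles to give the fluorescence ratio, then averaged per switch-domain sequence. Clusters outside 100-1000 RFU were excluded. The Cy3-labelled switching-strand clusters, on a modified Illumina MiSeq flow-cell, were annealed to 100 nM quencher-labelled ATP aptamer and imaged in selection buffer, then after 15 min with 500 uM ATP at 22 °C, for five cycles with NaOH stripping and re-annealing between them.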
For TCGCCGTAGG, the switch fluorescence ratio was 1.01.
TCGCCTCGT showed a switch fluorescence ratio of 1.12.
Work on TCGCCTTGAG yielded a switch fluorescence ratio of 1.01.
For TCGCGAGGCG, the switch fluorescence ratio was 1.01.
In the case of TCGCGATGTT, the switch fluorescence ratio is reported as 1.03.
In the case of TCGCGATTCT, the switch fluorescence ratio is reported as 1.2.
Work on TCGCGCGAAT yielded a switch fluorescence ratio of 1.01.
With TCGCGGATTT the switch fluorescence ratio was 0.986.
TCGCGGTAGT gave a switch fluorescence ratio of 0.986.
With TCGCTACAA the switch fluorescence ratio was 1.02.
Sequence TCGCTAGGC has a switch fluorescence ratio of 1.8.
Sequence TCGCTCCGCG has a switch fluorescence ratio of 1.21.
Sequence TCGCTCGGGG has a switch fluorescence ratio of 1.03.
Work on TCGCTGATAG yielded a switch fluorescence ratio of 1.77.
In the case of TCGCTGGTTA, the switch fluorescence ratio is reported as 0.985.
Sequence TCGGAAACTT has a switch fluorescence ratio of 1.05.
TCGGAACTTT showed a switch fluorescence ratio of 1.
In the case of TCGGAATTTA, the switch fluorescence ratio is reported as 0.989.
TCGGACAACG showed a switch fluorescence ratio of 0.989.
TCGGACCTC gave a switch fluorescence ratio of 1.21.
In the case of TCGGACGACG, the switch fluorescence ratio is reported as 1.07.
TCGGACGCGA showed a switch fluorescence ratio of 2.59.
With TCGGACGCTG the switch fluorescence ratio was 1.06.
TCGGAGAAAC showed a switch fluorescence ratio of 1.
TCGGATCAAG showed a switch fluorescence ratio of 0.985.
TCGGATCCGT gave a switch fluorescence ratio of 0.998.
Work on TCGGCAGCAT yielded a switch fluorescence ratio of 2.12.
TCGGCCCTTA was tested, and the switch fluorescence ratio was 1.03.
Sequence TCGGCCTCTC has a switch fluorescence ratio of 1.02.
For TCGGCGATGC, the switch fluorescence ratio was 2.06.
With TCGGCTCATC the switch fluorescence ratio was 1.02.
Work on TCGGCTGAG yielded a switch fluorescence ratio of 0.982.
TCGGCTGGGC gave a switch fluorescence ratio of 0.964.
TCGGCTTTCA gave a switch fluorescence ratio of 0.995.
In the case of TCGGGCAGAA, the switch fluorescence ratio is reported as 1.02.
Work on TCGGGCCGAT yielded a switch fluorescence ratio of 1.08.
In the case of TCGGGGAGAC, the switch fluorescence ratio is reported as 1.08.
In the case of TCGGTAAAGT, the switch fluorescence ratio is reported as 1.
For TCGGTAGCT, the switch fluorescence ratio was 1.03.
TCGGTAGGAG gave a switch fluorescence ratio of 1.01.
In the case of TCGGTATGTA, the switch fluorescence ratio is reported as 1.01.
For TCGGTGAATA, the switch fluorescence ratio was 0.968.
In the case of TCGGTGGGA, the switch fluorescence ratio is reported as 0.954.
TCGGTTACCC was tested, and the switch fluorescence ratio was 1.01.
In the case of TCGGTTATGT, the switch fluorescence ratio is reported as 0.986.
TCGGTTCGCG gave a switch fluorescence ratio of 1.04.
TCGGTTTTAG showed a switch fluorescence ratio of 0.985.
For TCGGTTTTGG, the switch fluorescence ratio was 0.993.
TCGTAAGGTA showed a switch fluorescence ratio of 0.987.
TCGTACATTC showed a switch fluorescence ratio of 1.06.
TCGTACCAAG was tested, and the switch fluorescence ratio was 1.02.
With TCGTACCCGT the switch fluorescence ratio was 0.982.
For TCGTACCGCC, the switch fluorescence ratio was 1.11.
TCGTAGAATG gave a switch fluorescence ratio of 1.01.
Sequence TCGTAGACAC has a switch fluorescence ratio of 1.06.
Sequence TCGTAGTTGG has a switch fluorescence ratio of 0.984.
TCGTATAACT gave a switch fluorescence ratio of 1.03.
For TCGTATCTTA, the switch fluorescence ratio was 1.01.
TCGTCAAACG was tested, and the switch fluorescence ratio was 0.943.
In the case of TCGTCCTGCA, the switch fluorescence ratio is reported as 1.66.
Work on TCGTCCTTCT yielded a switch fluorescence ratio of 0.998.
Sequence TCGTCGAAAA has a switch fluorescence ratio of 0.997.
For TCGTCGACAT, the switch fluorescence ratio was 1.02.
Work on TCGTCGAGCT yielded a switch fluorescence ratio of 1.02.
TCGTCGATGC showed a switch fluorescence ratio of 1.23.
TCGTCGCACG gave a switch fluorescence ratio of 0.99.
TCGTCGTC showed a switch fluorescence ratio of 0.971.
For TCGTCTAGGA, the switch fluorescence ratio was 1.03.
TCGTGACGCC showed a switch fluorescence ratio of 1.01.
TCGTGAGAAG gave a switch fluorescence ratio of 1.04.
For TCGTGAGGGA, the switch fluorescence ratio was 0.949.
For TCGTGAGGGC, the switch fluorescence ratio was 0.984.
TCGTGATACT was tested, and the switch fluorescence ratio was 5.29.
Work on TCGTGCATAC yielded a switch fluorescence ratio of 3.26.
TCGTGGCAGC showed a switch fluorescence ratio of 1.01.
Sequence TCGTGGGTAG has a switch fluorescence ratio of 1.04.
With TCGTGGTTCA the switch fluorescence ratio was 0.989.
TCGTGTGTG gave a switch fluorescence ratio of 0.993.
In the case of TCGTTAAAGT, the switch fluorescence ratio is reported as 1.16.
TCGTTCACGG showed a switch fluorescence ratio of 1.
TCGTTCATAG was tested, and the switch fluorescence ratio was 1.03.
With TCGTTCGCCC the switch fluorescence ratio was 1.14.
TCGTTCGTGT showed a switch fluorescence ratio of 0.966.
In the case of TCGTTCTAGT, the switch fluorescence ratio is reported as 1.
TCGTTGATAG showed a switch fluorescence ratio of 1.03.

From the supplement of paper PMC10126150
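Note: ATP exposure 15 min at 22 °C before imaging.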
